Source: PubChem BioAssay AID1159614 (National Center for Advancing Translational Sciences (NCATS), 2016)
Screen size: about 45,000 compounds; about 65 (0.1%) were called active. Calls come from the whole dose curve; as a rule, active = well fitted activation curve with a large enough effect; inconclusive = small, poorly fitted or top-dose-only effect; inactive = no such curve, though single readings can be large or run the other way. The list shows a part of the results.

What follows are compounds tested against Galactocerebrosidase (Homo sapiens) (UniProt P54803) (assay: A Novel Cell-Based Assay to Identify Small Molecules for B -Galactocerebrosidase). Settings: 145M-Twi-hGALC-G270D cells (Twitcher mouse brain line with human GALC G270D), HMU-beta-Gal fluorescence, 48 h; series mostly up to 57.5 µM; activation: at the top concentration.
Chain of UniProt P54803 (P54803 whole entry, looked up): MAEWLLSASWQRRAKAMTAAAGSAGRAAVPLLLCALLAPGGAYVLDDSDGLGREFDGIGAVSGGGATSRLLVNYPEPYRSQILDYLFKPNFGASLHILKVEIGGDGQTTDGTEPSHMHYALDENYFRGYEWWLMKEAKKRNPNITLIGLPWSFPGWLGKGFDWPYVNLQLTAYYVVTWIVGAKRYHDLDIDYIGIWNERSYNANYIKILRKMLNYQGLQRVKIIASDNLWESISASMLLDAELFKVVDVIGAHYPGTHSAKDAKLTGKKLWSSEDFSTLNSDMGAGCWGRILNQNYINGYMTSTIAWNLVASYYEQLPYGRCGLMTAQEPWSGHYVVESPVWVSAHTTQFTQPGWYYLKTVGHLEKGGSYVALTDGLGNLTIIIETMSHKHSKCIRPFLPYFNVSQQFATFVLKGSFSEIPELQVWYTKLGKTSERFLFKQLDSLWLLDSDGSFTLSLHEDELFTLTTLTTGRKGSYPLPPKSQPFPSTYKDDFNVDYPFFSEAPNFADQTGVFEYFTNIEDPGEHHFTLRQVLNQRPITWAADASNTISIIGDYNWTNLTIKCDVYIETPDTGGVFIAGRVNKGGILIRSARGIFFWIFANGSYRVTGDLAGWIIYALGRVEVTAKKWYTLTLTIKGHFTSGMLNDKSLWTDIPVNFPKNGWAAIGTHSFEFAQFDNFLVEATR
How it was run: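 Fluorogenic HMU-b-Gal hydrolysis (0.1 mM final, pH 5.2 citrate-phosphate with 1 mg/mL sodium taurocholate; carbonate stop buffer) measures mutant GALC activity after compound treatment of live 145M-Twi Twitcher brain cells stably carrying human GALC-G270D, with wild-type GALC line alongside; activation sought.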
Note: 0% is about no effect; nearly all actives have a fitted effect of over 65% in size.

activation, inactive:
CC(C)CN(CC(C)C)CC(O)Cn1cc(/C=C/C(=O)c2ccccc2)c2ccccc21 (stereo not given) -13.4%, COc1cccc(CNS(=O)(=O)c2c(C(=O)N3CCC(C)CC3)c(C)n(C)c2C)c1 -11%, COc1ccccc1CNC(=O)COCc1cc(-c2ccc3c(c2)OCO3)on1 -15.3%, CCOc1ccc(S(=O)(=O)Nc2ccc3oc4c(c3c2)CC(C)CC4)cc1 (stereo not given) -16.7%, COc1ccc(/C=C(\C#N)c2nc3ccccc3c(=O)[nH]2)cc1OC -8.35%, COc1ccc(C(=O)NCc2ccc3c(c2)CCN3C(=O)c2ccc(F)cc2)cc1 -12.9%, NC(N)=N/N=C/c1c(Cl)cccc1Cl -11.7%, CCOc1ccccc1CNC(=O)Cn1nc(N2CCN(c3ccccc3)CC2)ccc1=O -10.8%, COc1ccc(C)c2sc(NC(=O)c3ccc(S(=O)(=O)N4CCCC4)cc3)nc12 -15.8%, CCc1ccc(NC(=O)C2=CC(c3cccs3)=NS(=O)(=O)N2C)cc1 -11%, COc1cc(NS(=O)(=O)c2c(C)nc3sc(C)c(C)n3c2=O)cc(OC)c1 -13.4%, CN(C)CCC=C1c2ccccc2C=Cc2ccccc21 -15.3%, CCN1CCN(c2ncnc3c2cnn3-c2cccc(C)c2)CC1 -21.8%, O=C(NCc1ccco1)c1ccc(Cn2c(SCc3ccccc3F)nc3cccnc32)cc1 -8.01%, O=C(CSc1ncccc1C(=O)Oc1ccccc1Cl)Nc1ccccc1Cl -11.6%, CN(C)c1ccc(CNC(=O)C2COc3ccccc3C2)cc1 (stereo not given) -14%, Cn1nnnc1SCCCNCc1cccc(OCc2ccccc2)c1 -10.9%, Cc1c(C(=O)OCc2ccccc2)[nH]c2c1C(=O)CC(c1ccc(Cl)cc1)C2 (stereo not given) -20.7%, CC1CCN(S(=O)(=O)c2ccc3c(c2)N(CC(=O)NCC(C)c2ccccc2)C(=O)CO3)CC1 (stereo not given) -6.15%, O=C(NCc1ccc(Cl)cc1)NC1COc2ccccc2C1 (stereo not given) -6.5%, CCOc1ccc(C(=O)c2oc3ccccc3c2NC(=O)c2cc(-c3ccc(C)cc3)on2)cc1 -13.2%, Cc1ccc(-c2cc(C(F)(F)F)n3ncc(-c4ccccc4)c3n2)cc1 -12.2%, O=C(NC1CCCCC1)c1ccc2c(c1)N(Cc1ccccc1Cl)C(=O)c1ccccc1S2 -4.35%, COc1ccc(CCNC(=O)Cn2cc(S(=O)(=O)Cc3ccc(F)cc3)c3ccccc32)cc1OC -9.53%, CCOc1ccccc1NC(=O)C1CCCN1S(=O)(=O)c1ccc2nc(-c3ccccc3)[nH]c2c1 (stereo not given) -10.7%, CN(C)CCc1c[nH]c2ccc(C[C@H]3COC(=O)N3)cc12 -31.5%, Cc1ccc(S(=O)(=O)CC(=O)N2CCN(c3nc4c(F)cccc4s3)CC2)cc1 -4.96%, CCCCN(C)CCNC(=O)c1cc2c(=O)n(C)c3ccccc3c2n1C -14.8%, COc1ccc(CNC(=O)CCc2c(C)c3cc4c(C)coc4c(C)c3oc2=O)cc1OC -1.75%, N#Cc1ccccc1NS(=O)(=O)c1ccc(N2CCCCS2(=O)=O)cc1 -5.82%, CCCc1nn2c(=O)cc(COC(=O)c3ccc(NC(=O)COc4ccccc4)cc3)nc2s1 -22.5%, CN1C(=O)c2ccccc2Sc2ccc(NC(=O)c3ccc(C(F)(F)F)cc3)cc21 -11.9%, COC(=O)c1cc2oc3ccccc3c2n1Cc1ccc(Cl)cc1 -15.8%, COc1ccc(-c2nc3scc(CCNS(=O)(=O)c4ccc(F)cc4C)n3n2)cc1 -10.7%, CCn1cc(C(=O)N2CCN(c3ccccc3)CC2)c(=O)c2cc(S(=O)(=O)N3CCOCC3)ccc21 -12.7%, CCC(Oc1ccc(F)cc1)C(=O)Nc1c(C(=O)c2ccc(C)cc2)oc2ccccc12 (stereo not given) -12.2%, CCn1c2c(c(=O)n3ncc(C(=O)N4CCN(c5ccc(Cl)cc5)CC4)c13)CN(Cc1ccc(OC)cc1)CC2 -4.39%, Cc1ccc(Cn2c(CO)cnc2SCC(=O)Nc2ccc(C)c(Cl)c2)cc1 -14.2%, COc1ccc(N(C)C(=O)c2cn(C)c(=O)c3cc(OC)c(OC)cc23)cc1 15.8%, COc1ccc(NC(=O)c2ccc3nc(C(C)C)oc3c2)cc1OC -21.7%, Cc1ccc(-c2ccc(=O)n(CCC(=O)NCCc3ccccc3)n2)cc1 -6.06%, COc1ccc(Nc2cc(C(=O)NCCCN3CCN(c4ccccc4F)CC3)c3ccccc3n2)c(OC)c1 -23.8%, COc1cccc(CN2c3ccccc3-c3nc(SCC(=O)Nc4ccccc4Cl)ncc3S2(=O)=O)c1 -0.917%, CCOC(=O)c1[nH]c(C)c(CCC(=O)NCc2ccc(CC)cc2)c1C -4.97%, CCN(CC)CCNC(=O)c1cc2c(=O)n(C)c3cc(Cl)ccc3c2s1 1.07%, CC(C)COc1ccc(C(=O)N2CCN(CCc3ccncc3)CC2)cc1 -2.5%, O=C1CSC2(C(=O)N(Cc3cccc(F)c3)c3ccccc32)N1c1cccc(C(F)(F)F)c1 (stereo not given) -35.8%, CCCC(=O)OCc1cnc(C)c2oc(=O)c(C(=O)Nc3cccc(C(F)(F)F)c3)cc12 -3.85%, COc1ccc(N(Cc2cccs2)C(=O)c2ccc(OC)c(Cl)c2)cc1 -24.4%, Cc1cccc(N2CCN(C(=O)C3CCN(S(=O)(=O)c4c(C)noc4C)CC3)CC2C)c1 (stereo not given) -4.27%, COc1ccc(NC(=O)Cn2cc(S(=O)(=O)c3ccccc3)c(=O)c3cc4c(cc32)OCO4)cc1 -10.3%, CCN1CCc2c(sc(-n3cccc3)c2C(C)NC(=O)Nc2ccc(Br)cc2)C1 (stereo not given) -18.1%, Cc1ccccc1C(=O)Nc1ccc2nc(N3CCCCC3)cc(C)c2c1 -29.9%, COc1cccc(N2CCN(C(=O)C3CCN(S(=O)(=O)c4c(C)noc4/C=C/c4ccccc4F)CC3)CC2)c1 -10.3%, CCCS(=O)(=O)c1c(S(=O)(=O)CCC)c2cc(C(C)(C)C)ccn2c1C(=O)c1ccccc1 -2.07%, Cc1c(C(=O)Nc2ccccc2)sc2nc(-c3cc4cc(Cl)ccc4oc3=O)[nH]c(=O)c12 -16.8%, CCC(=O)Nc1ccccc1-c1nc2ccccc2n(CC(=O)Nc2ccccc2OC)c1=O -9.03%, Cc1cccc(C)c1NC(=O)C(NS(=O)(=O)c1cccs1)c1ccccc1 (stereo not given) -9.27%, O=C(NCCc1ccc(Cl)cc1)c1ccc(CS(=O)(=O)c2ccc(Cl)cc2)o1 -8.12%, O=C(Cn1ccn(-c2ccc(F)cc2)c(=O)c1=O)Nc1ccc(F)cc1 -9.92%, CCN(CC)C(=O)c1sc2c(c1C)c(=O)n(CCc1ccccc1)c(=O)n2Cc1cc(C)ccc1C -0.954%, COc1cccc(N2CCN(C(=O)c3cc4c(s3)-c3ccccc3OC4)CC2)c1 3.01%, CC(C)(C)C(=O)NCC(c1ccc2c(c1)OCO2)N1CCOCC1 (stereo not given) -17.1%, O=C(CSc1nnc(-c2cccs2)o1)Oc1ccccc1Cl -6.2%, COc1cc(CNC(=O)c2ccc3c(c2)c(C)c(C)n3Cc2cccc(C)c2)cc(OC)c1OC -12.5%, O=C(Cn1ncc2c3ccccc3n(Cc3cccc(Cl)c3)c2c1=O)Nc1ccc(F)cc1F -11.9%, Cc1c(Cl)cccc1NC(=O)CCOc1ccccc1 -22.2%, Cc1cccn2c(=O)c3cc(C#N)c(=O)n(-c4nnc(SCc5ccc(Cl)cc5)s4)c3nc12 -14.1%, CCOc1ccc(Cn2c(=O)sc3ccccc32)cc1 -12.3%, CCOC(=O)c1nc(NCc2ccc(Cl)cc2)c2c(C)noc2n1 -0.803%, CCC(=O)C1=C(c2ccc(C)cc2)N(C(=O)CC)n2c(nnc2C2CCCCC2)S1 -18.3%, Cc1cccc(C)c1NC(=O)CS(=O)(=O)c1nc(-c2ccc(Cl)cc2)cn1-c1ccccc1 -54.7%, CC(=O)N1CCc2cc(S(=O)(=O)NC(CC(C)C)C(=O)Nc3cc(C)cc(C)c3)ccc21 (stereo not given) -13%, CC1=C(C(=O)Nc2ccccc2C)C(c2ccccn2)n2ncnc2N1 (stereo not given) -18.4%, CC(=O)N1CCc2c(sc3c2c(=O)n(CCc2ccccc2)c(=O)n3Cc2ccccc2C)C1 -5.69%, CCSc1ncc(Cl)c(C(=O)Nc2sc3c(c2C(=O)NCCCOC)CCCC3)n1 -11.9%, Cc1ccc(C)c(-c2ccc(=O)n(Cc3c(F)cccc3Cl)n2)c1 -22.2%, COc1ccc(NC(=O)CSc2nc(-c3cccc(C)c3)[nH]c2-c2ccccc2)cc1OC -12.1%, Cc1cc(C)c2c(c1)c(C)cc1nnc(SCc3ccccc3C#N)n12 -6.78%, CC1=C(C(=O)Nc2ccc(Cl)cc2)C(c2ccccc2)n2ncc(C(=O)Nc3ccccc3)c2N1 (stereo not given) -44%, Cc1ccc(NC(=O)CN2C(=O)COc3ccc(S(=O)(=O)NC4CCCC4)cc32)cc1N(C)C -11.8%, Cc1ccc(C)c(Cn2c(=O)c3c(nc4n3CCN4c3ccccc3)n(C)c2=O)c1 -7.36%, CC(C)c1noc(-c2ccccc2OCC(=O)Nc2cccc([N+](=O)[O-])c2)n1 -5.09%, CCN(CC)S(=O)(=O)c1ccc2c(c1)c(=O)c(C(=O)N1CCN(c3cc(Cl)ccc3C)CC1)cn2C -21.2%, CC(C)Sc1ncc(Cl)c(C(=O)Nc2ccc(S(=O)(=O)N3CCCCC3)cc2)n1 -8.18%, Cc1ccc(CN(C(=O)COc2cc(C)c(Cl)c(C)c2)c2ccccn2)o1 -21.9%, COc1ccc(-c2nc3scc(CCNS(=O)(=O)c4ccc5c(c4)OCCO5)n3n2)cc1 -9.08%, CC(=O)N1CCc2cc(Br)cc(S(=O)(=O)CCC(=O)N3CCN(c4ccccc4Cl)CC3)c21 -17.6%, CCOc1ccc(-c2c(C)nn3c(C)c(C(=O)Nc4cc(C)cc(C)c4)cnc23)cc1OCC -10.7%, Cc1ccc(-c2cc3nc(-c4ccccc4)cc(C(F)(F)F)n3n2)cc1 -5.82%, COc1cc(C2CC(=O)Oc3c2c(=O)[nH]c2ccccc32)cc(OC)c1OC (stereo not given) -3.18%, Cc1ccc(NC(=O)C2CCN(S(=O)(=O)c3cccc4nonc34)CC2)cc1C -2.52%, O=C(Oc1ccccc1F)c1nc(SCc2ccc(F)cc2)ncc1Cl -15%, CCOc1ccc(Nc2c(S(=O)(=O)c3ccccc3)cnc3ccc(F)cc23)cc1 -17.7%, Cc1cc(C)c2sc(N3CCN(C(=O)c4ccc(N(C)C)cc4)CC3)nc2c1 -30%
